Reference: PubChem BioAssay AID463173 (ICCB-Longwood Screening Facility, Harvard Medical School, 2010)
The whole screen tested about 52,000 compounds, of which about 4,300 (8.3%) were called active. No stated cut-off is given here; in the data, active means survival mostly below about 52% (no sharp cut-off); inactive means mostly above about 56%. The list shows a part of the results.

System: DeltatarO mutant
Experiment: S. aureus survival, RN4220 and DeltatarO strains – OD600, teichoic acid synthesis inhibitors, primary screen (AID 463173)
Conditions: S. aureus RN4220 wild type/DeltatarO growth, OD600, 18 h, hits give low values, screened at 18.75 µg/mL (by protocol)

Row | SMILES | survival
1 | Cc1ccc(N2CCn3c2nc2c3c(=O)n(CCCc3ccccc3)c(=O)n2C)cc1 | inactive: 81%
2 | O=C1CCCCCN1Sc1ccccc1 | active: 48%
3 | COc1ccc(OC)c(CNC(=O)c2ccccc2NC(=O)c2nsc3ccccc23)c1 | inactive: 92%
4 | Cc1cc(C)c(NC(=O)Cn2c(=O)n(CCc3ccccc3)c(=O)c3ccccc32)c(C)c1 | inactive: 108%
5 | Cc1cccc(-c2nc(SCC(=O)NCC3CCCO3)c3c(=O)n(C)c(=O)n(C)c3n2)c1 (configuration not stated) | inactive: 120%
6 | Cc1ccccc1N(C)C(=O)c1noc2c1COc1ccccc1-2 | inactive: 72%
7 | CCOC(=O)c1ccc(NC(=O)Nc2ccc3snnc3c2)cc1 | inactive: 114%
8 | C=Cn1cc[n+](CC(=O)c2ccc(OC)cc2)c1 | inactive: 77%
9 | C#CCn1c(/C=C/c2ccc(Cl)cc2)nc2ccccc21 | active: 10%
10 | COc1ccc(S(=O)(=O)NNC(N)=S)cc1 | inactive: 100%
11 | Cc1ccccc1NC(=O)N1CCCC(c2nc(-c3ccc(F)cc3)no2)C1 (configuration not stated) | inactive: 93%
12 | CCN(c1ccc(OC)cc1)S(=O)(=O)c1nnc(NC(=O)COc2ccc(F)cc2)s1 | inactive: 70%
13 | CC(C)CC(=O)NCC(c1ccc2c(c1)OCO2)N1CCN(c2ccccc2F)CC1 (configuration not stated) | inactive: 67%
14 | Cc1ccc(-n2nc(C(=O)N3CCN(c4ccccc4F)CC3)c3c4ccccc4n(C)c3c2=O)cc1 | inactive: 88%
15 | COc1cccc(CNC(=O)CN2N=C(c3ccc(C)cc3)CCC2=O)c1 | inactive: 83%
16 | CCC(C(=O)N1CCN(c2cc(Cl)ccc2C)CC1)n1nc(C)c2sc3ccccc3c2c1=O (configuration not stated) | inactive: 60%
17 | Cc1ccc(N(C)S(=O)(=O)c2ccc3c(c2)C(C)(C)C(=O)N3C)cc1C | inactive: 80%
18 | O=C(NCc1ccccc1Cl)c1cccn1-c1nnc(N2CCCCC2)s1 | inactive: 64%
19 | CCN(CC)CCCNC(=O)CCCn1c(=O)[nH]c2ccc(Br)cc2c1=O | inactive: 88%
20 | CC(=O)c1ccccc1NS(=O)(=O)c1cc2c(cc1C)NC(=O)CO2 | inactive: 105%
21 | O=C(CCn1c(=O)c2cccn2c2cccnc21)NCc1ccccc1Br | inactive: 81%
22 | CCC(=O)Nc1ccc(C)cc1-c1nc2ccccc2n(C(C)C(=O)Nc2ccccc2CC)c1=O (configuration not stated) | inactive: 83%
23 | CCC(CC)C(=O)Nc1ccc(C(=O)OCc2cc(=O)n3nc(C4CC4)sc3n2)cc1 | inactive: 80%

Row | SMILES | survival
24 | CN1C(=O)c2ccccc2Sc2ccc(NC(=O)Cc3c(F)cccc3Cl)cc21 | inactive: 84%
25 | COc1ccc(Cn2cc(C(=O)c3ccc(C)c(C)c3)c(=O)c3ccccc32)cc1 | inactive: 72%
26 | CCCCC12CN3CC(C)(CN(C1)C3c1ccc(O)c(OC)c1)C2=O (configuration not stated) | inactive: 70%
27 | CCOc1ccc(CCNC(=O)c2cc(C)nc3c2c(C)nn3-c2cccc(F)c2)cc1 | inactive: 96%
28 | COc1ccc(CNCCC(c2ccc3c(c2)OCO3)c2ccccc2OC)cc1 (configuration not stated) | active: 1%
29 | O=C(Cn1cc(S(=O)(=O)Cc2cccc(Cl)c2)c2ccccc21)Nc1ccccc1Cl | inactive: 68%
30 | COc1cccc(NC(=O)CSc2nccn2C2CCCC2)c1 | inactive: 67%
31 | CC(CNC(=O)c1nnc(Cc2ccc(F)cc2)o1)c1ccccc1 (configuration not stated) | inactive: 73%
32 | Cc1ccc(-n2nc3c(=O)n(CC(=O)NCCC(C)C)nc(C)c3c2C)cc1 | inactive: 73%
33 | COc1cc2ncc(C(=O)c3ccc(C)cc3)c(N3CCCCC3)c2cc1OC | active: 2%
34 | COCCCNC(=O)Cn1c(=O)nc(-c2ccccc2)c2ccccc21 | inactive: 78%
35 | O=C1CC(NC2CC2)C(=O)N1c1ccccc1 (configuration not stated) | inactive: 93%
36 | O=C(NCc1cccc(Br)c1)c1ccc(NC(=O)N2CCCCc3ccccc32)cc1 | inactive: 87%
37 | COc1ccc(N2CCN(Cc3nc4c(c(=O)[nH]c(=O)n4C)n3CC(C)C)CC2)cc1 | inactive: 123%
38 | CCCCCCNc1nc(Oc2ccccc2)nc(Oc2ccccc2)n1 | inactive: 62%
39 | NC(=O)C1CCN(C(=O)Cc2ccc(Cl)cc2)CC1 | inactive: 97%
40 | Cc1ccc(S(=O)(=O)c2nnn3c2nc(NCCc2ccccc2)c2sccc23)cc1 | inactive: 65%
41 | CC1CCN(c2nc3ccc(C(=O)NCc4ccccc4Cl)cc3s2)CC1 | inactive: 75%
42 | O=C(NC1CCCC1)c1ccc2c(c1)N(Cc1ccccc1)C(=O)c1ccccc1S2 | inactive: 105%
43 | COc1cccc(CNC(=O)Cc2c(C)c3ccc(OC)c(C)c3oc2=O)c1 | inactive: 54%
44 | COc1ccc(C2=C(N3CCN(c4cccc(C)c4)C(C)C3)c3ccccc3C2=O)cc1 (configuration not stated) | inactive: 51%
45 | Cc1ccc(F)cc1NC(=O)Cn1c(C)cc(C)c(C#N)c1=O | inactive: 126%
46 | COCCCn1c(SCC(=O)N2CC(=O)Nc3ccccc32)nnc1-c1ccoc1C | inactive: 79%

Row | SMILES | survival
47 | CCOc1ccc(C2c3[nH]c4ccccc4c3CCN2C(=O)CSCc2ccc(F)cc2)cc1 (configuration not stated) | inactive: 97%
48 | Cc1cccc(CNC(=O)c2ccc3nc(Cc4ccccc4)oc3c2)c1 | inactive: 124%
49 | O=C(NCCc1ccccc1)c1nn(-c2ccc(F)cc2)nc1CO | inactive: 108%
50 | COc1ccc(NC(=O)CSc2nnc(NC(=O)NC3CCCCC3)s2)cc1OC | inactive: 70%
51 | Cc1cc(S(=O)(=O)NCC(c2ccco2)S(=O)(=O)c2cccs2)ccc1F (configuration not stated) | inactive: 101%
52 | Cc1ccc(CCNC(=O)c2c3c(nc4ccccc24)C(=O)N(C2CCCCC2)C3)cc1 | inactive: 98%
53 | Cn1c(=O)oc2cc(S(=O)(=O)N3CCCC(C(=O)NCCc4ccccc4)C3)ccc21 (configuration not stated) | inactive: 103%
54 | CC(=O)c1ccc(NS(=O)(=O)c2ccc3[nH]c4c(c3c2)CCCC4)cc1 | inactive: 83%
55 | Cc1ccccc1C(=O)Nc1c(C)nc2ccccn2c1=O | active: 37%
56 | Cc1ccc(CNC(=O)c2c[nH]n3c(=O)c(Cc4ccc(Cl)cc4)c(C)nc23)cc1 | active: -12%
57 | CC1(C)NC(=O)N(CC(O)COc2ccc(N3C(=O)c4ccccc4C3=O)cc2)C1=O (configuration not stated) | inactive: 105%
58 | CCc1ccc(S(=O)(=O)c2cn(Cc3ccccc3F)c3cc(OC)c(OC)cc3c2=O)cc1 | inactive: 70%
59 | Cc1ccc2[nH]c(=O)c(CNCCCO)cc2c1 | inactive: 80%
60 | Nc1ccc(N=C2C(=O)Nc3ccccc32)cc1 | inactive: 103%
61 | COc1ccc(CNC(=O)Nc2ccc3c(c2)N(C)C(=O)c2ccccc2S3)cc1OC | inactive: 61%
62 | COc1cc(OC)c(NC(=O)CN2CCCN(Cc3ccccc3C)S2(=O)=O)cc1Cl | inactive: 73%
63 | CCOc1ccc(CCNC(=O)CCCc2nnc3n(CC)c(=O)c4sccc4n23)cc1OCC | inactive: 92%
64 | Cc1cccc(NC(=O)COc2ccc(-c3nn(C)c(=O)c4ccccc34)cc2)c1 | inactive: 50%
65 | Cc1ccc(NC(=O)Cn2c(=O)n(Cc3nc(-c4ccccc4)no3)c(=O)c3ccccc32)cc1C | inactive: 76%
66 | COC(=O)c1ccccc1NC(=O)CSc1nc(=O)cc(N)n1-c1ccccc1 | active: 38%
67 | Cc1coc2cc3oc(=O)c(CC(=O)NCc4cccc(Cl)c4)c(C)c3cc12 | inactive: 88%
68 | Cc1ccc(CNC(=O)c2c(-c3ccccc3Cl)noc2C)o1 | inactive: 91%
69 | Cc1ccc(CNC(=O)c2ccc(Cn3c(=O)c4ccccc4n(CC(=O)Nc4ccc(C)cc4)c3=O)cc2)cc1 | inactive: 88%

Row | SMILES | survival
70 | Cc1cccc(NC(=O)Cn2cc(C(=O)c3ccco3)c3ccccc32)c1 | inactive: 88%
71 | Cc1ccccc1OCCn1c(-c2ccc(Cl)cc2)nc2ccccc2c1=O | inactive: 57%
72 | O=C1CN(Cc2ccccc2)C(=NCc2ccco2)S1 | inactive: 116%
73 | CC1CCN(CC(=O)N2CCN(c3ccccc3)CC2)CC1 | inactive: 101%
74 | O=C(NCCc1ccccc1)c1ccc(Cl)nc1 | inactive: 100%
75 | CC(C)C1Oc2ccccc2N(CC(=O)N(C)C2CCCCC2)C1=O (configuration not stated) | inactive: 95%
76 | COc1cc(OC)c(NC(=O)CCc2c(C)nc3ncnn3c2C)cc1Cl | inactive: 97%
77 | CCn1c(CN2CCC(C)CC2)nc2cc(NC(=O)COc3ccc(Cl)c(C)c3)ccc21 | inactive: 72%
78 | CN(Cc1ccccc1)c1ccc(-c2nc(-c3ccccn3)no2)cc1[N+](=O)[O-] | active: 34%
79 | COc1cccc(N2CCN(C(=O)c3cc4cc5cc(C)ccc5nc4s3)CC2)c1 | inactive: 105%
80 | CCc1ccc(-n2c(SCc3ccccc3Cl)nc3[nH]ncc3c2=O)cc1 | inactive: 102%
81 | CCC(=O)N1c2ccccc2CC1C(=O)NCc1ccccc1Cl (configuration not stated) | inactive: 69%
82 | Cc1cccc(NC(=O)CCn2cnnn2)c1C | inactive: 93%
83 | CCOC(=O)c1c(C)[nH]c(C)c1S(=O)(=O)N1CCCC(C(=O)NCc2ccc(Cl)cc2)C1 (configuration not stated) | inactive: 80%
84 | CCOCCCNC(=O)CN1C(=O)COc2ccc(S(=O)(=O)N3CCCC3)cc21 | inactive: 87%
85 | COc1ccccc1Nc1cc(C(=O)NC2CCC(C)CC2)c2ccccc2n1 (configuration not stated) | inactive: 74%
86 | O=C(Nc1ccc2oc(-c3ccncc3)nc2c1)c1ccccc1Cl | inactive: 68%
87 | Cc1oc(-c2ccc(Cl)cc2)nc1CSc1nc2ncccc2[nH]1 | inactive: 94%
88 | O=C(OCc1cc(=O)n2nc(C3CCCCC3)sc2n1)c1ccc(F)cc1 | inactive: 79%
89 | COC(=O)c1c(NC(=O)/C(C#N)=C/c2ccccc2)sc2c1CCC2 | inactive: 55%
90 | CCOc1ccc(NC(=O)c2sc3nc4c(c(-c5ccc(OC)cc5)c3c2N)C(=O)CC(C)(C)C4)cc1 | inactive: 56%
91 | CCOc1ccc(-n2cc(-c3ccccc3)c3c(N4CCN(c5ccccc5OC)CC4)ncnc32)cc1 | inactive: 75%
92 | CCCCN(CC)C(=O)CSc1c2c(nc3ccc(Cl)cc13)CCCC2 | active: -2%
